Assay [1] deals with human TRIM3 RING (2-95) (human) (UniProt O75382). Nature of the assay: SEC-MALLS; Superdex 75 or 200 10/300 GL Increase; 20 mM HEPES pH 7.5, 150 mM NaCl, 0.5 mM TCEP, 3 mM NaN3; 25 °C; 100 μl samples at multiple concentrations (5, 3, 2 and 1 mg/ml in Fig. 1b); both purified.
For assay [2] the target is unchanged. The assay can be described thus: SAXS; SEC-SAXS at SWING (SOLEIL); RING constructs injected at 10 mg/ml (ca. 1 mM) on a Bio SEC-3 100 Å column, 15 °C; both purified. (SEC sorts molecules by how far they enter the pores of the column.)
Assay [3] concerns the target human TRIM3 RING-B-box2 (2-153) (human) (UniProt O75382). The assay can be described thus: SEC-MALLS; Superdex 75 or 200 10/300 GL Increase; 20 mM HEPES pH 7.5, 150 mM NaCl, 0.5 mM TCEP, 3 mM NaN3; 25 °C; 100 μl samples at multiple concentrations (5, 3, 2 and 1 mg/ml in Fig. 1b); both purified.
Assay [4] deals with T1, TRIM3-FLAG full length (human) (UniProt O75382).
T1 sequence: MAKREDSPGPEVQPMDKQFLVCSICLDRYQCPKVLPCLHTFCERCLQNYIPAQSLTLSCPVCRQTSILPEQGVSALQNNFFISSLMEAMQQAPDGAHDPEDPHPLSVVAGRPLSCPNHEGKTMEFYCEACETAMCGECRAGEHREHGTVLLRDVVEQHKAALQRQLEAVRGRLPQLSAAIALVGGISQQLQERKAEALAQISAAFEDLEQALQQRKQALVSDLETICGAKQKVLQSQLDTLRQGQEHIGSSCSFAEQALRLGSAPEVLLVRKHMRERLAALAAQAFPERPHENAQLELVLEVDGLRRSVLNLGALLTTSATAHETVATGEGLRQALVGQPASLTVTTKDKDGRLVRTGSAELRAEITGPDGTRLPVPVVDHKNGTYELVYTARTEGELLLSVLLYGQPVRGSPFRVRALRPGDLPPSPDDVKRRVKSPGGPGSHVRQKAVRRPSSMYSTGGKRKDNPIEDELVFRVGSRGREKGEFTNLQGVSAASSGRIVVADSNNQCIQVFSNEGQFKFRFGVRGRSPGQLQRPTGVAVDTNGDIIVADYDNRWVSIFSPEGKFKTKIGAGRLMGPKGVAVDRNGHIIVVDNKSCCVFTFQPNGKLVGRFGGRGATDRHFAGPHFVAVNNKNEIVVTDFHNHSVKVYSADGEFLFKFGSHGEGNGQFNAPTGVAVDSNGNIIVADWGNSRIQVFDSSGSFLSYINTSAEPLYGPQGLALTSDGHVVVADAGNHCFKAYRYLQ
Nature of the assay: co-IP; EGFP-TRIM2 and FLAG-TRIM3 constructs overexpressed in HEK293T; IP with anti-GFP and Protein A/G beads or with FLAG M2 beads; 0.5% IGEPAL, 150 mM NaCl, 50 mM Tris-HCl pH 7.5, 5 mM MgCl2; for truncation mutants cells treated with 10 μM MG132 6 h.

For assay [5], the target named is T2, endogenous TRIM3 (human (endogenous in LN229)) (UniProt O75382).
T2 sequence: T1 sequence
Nature of the assay: co-IP; endogenous proteins from LN229 glioblastoma cells; IP with anti-TRIM2 or anti-TRIM3 and Protein A/G beads, control IP with FLAG antibody; 0.5% IGEPAL, 150 mM NaCl, 50 mM Tris-HCl pH 7.5, 5 mM MgCl2.

No constants are given. Whether binding was seen depends on the method and setting. For some assays here: Binding seen in cells or lysates may run through a third protein. Some binding calls cover weakened binding; strength is not graded here. For some assays here: Sequences can lack the tags named with a protein.

B1: human TRIM3 RING (2-95) (domain or fragment)
chain: GPGAKREDSPGPEVQPMDKQFLVCSICLDRYQCPKVLPCLHTFCERCLQNYIPAQSLTLSCPVCRQTSILPEQGVSALQNNFFISSLMEAMQQAPDG
notes: tripeptide Gly-Pro-Gly left at the N-terminus by 3C protease cleavage; human TRIM3, RING construct, residues 2-95; also called T3R; source: E. coli BL21 (DE3), purified (Ni-NTA, His6 cleaved by HRV 3C, SEC); not shown: His6, N-terminal, cleaved
Regarding B1, the binding entry in assay [1] is recorded as “no binding (tested: 1-5 mg/ml)”; in assay [2], “no binding (tested: 10 mg/ml (ca. 1 mM))”.

B2: human TRIM3 RING-B-box2 (2-153) (domain or fragment, UniProt O75382 2-153)
chain: AKREDSPGPEVQPMDKQFLVCSICLDRYQCPKVLPCLHTFCERCLQNYIPAQSLTLSCPVCRQTSILPEQGVSALQNNFFISSLMEAMQQAPDGAHDPEDPHPLSVVAGRPLSCPNHEGKTMEFYCEACETAMCGECRAGEHREHGTVLLRD
On to B2, for which the binding entry in assay [3] is given as “no binding”.

B3: EGFP-TRIM2 full length (protein, UniProt Q9C040 1-744)
chain: MASEGTNIPSPVVRQIDKQFLICSICLERYKNPKVLPCLHTFCERCLQNYIPAHSLTLSCPVCRQTSILPEKGVAALQNNFFITNLMDVLQRTPGSNAEESSILETVTAVAAGKPLSCPNHDGNVMEFYCQSCETAMCRECTEGEHAEHPTVPLKDVVEQHKASLQVQLDAVNKRLPEIDSALQFISEIIHQLTNQKASIVDDIHSTFDELQKTLNVRKSVLLMELEVNYGLKHKVLQSQLDTLLQGQESIKSCSNFTAQALNHGTETEVLLVKKQMSEKLNELADQDFPLHPRENDQLDFIVETEGLKKSIHNLGTILTTNAVASETVATGEGLRQTIIGQPMSVTITTKDKDGELCKTGNAYLTAELSTPDGSVADGEILDNKNGTYEFLYTVQKEGDFTLSLRLYDQHIRGSPFKLKVIRSADVSPTTEGVKRRVKSPGSGHVKQKAVKRPASMYSTGKRKENPIEDDLIFRVGTKGRNKGEFTNLQGVAASTNGKILIADSNNQCVQIFSNDGQFKSRFGIRGRSPGQLQRPTGVAVHPSGDIIIADYDNKWVSIFSSDGKFKTKIGSGKLMGPKGVSVDRNGHIIVVDNKACCVFIFQPNGKIVTRFGSRGNGDRQFAGPHFAAVNSNNEIIITDFHNHSVKVFNQEGEFMLKFGSNGEGNGQFNAPTGVAVDSNGNIIVADWGNSRIQVFDGSGSFLSYINTSADPLYGPQGLALTSDGHVVVADSGNHCFKVYRYLQ
For B3, in assay [4], the binding result was “binds”.

B4: endogenous TRIM2 (protein, UniProt Q9C040 1-744)
chain: B3 chain
As to B4, the binding result in assay [5] is given as “binds”.
